The supplement of paper PMC3334620
Over roughly 33,000 sequences, “E-score (-0.5 to 0.5)” has its median near -0.054; the highest 2% begin near 0.35. Some of the results follow.

Molecular target: T1, Stb5 (UniProt P38699)
T1 sequence: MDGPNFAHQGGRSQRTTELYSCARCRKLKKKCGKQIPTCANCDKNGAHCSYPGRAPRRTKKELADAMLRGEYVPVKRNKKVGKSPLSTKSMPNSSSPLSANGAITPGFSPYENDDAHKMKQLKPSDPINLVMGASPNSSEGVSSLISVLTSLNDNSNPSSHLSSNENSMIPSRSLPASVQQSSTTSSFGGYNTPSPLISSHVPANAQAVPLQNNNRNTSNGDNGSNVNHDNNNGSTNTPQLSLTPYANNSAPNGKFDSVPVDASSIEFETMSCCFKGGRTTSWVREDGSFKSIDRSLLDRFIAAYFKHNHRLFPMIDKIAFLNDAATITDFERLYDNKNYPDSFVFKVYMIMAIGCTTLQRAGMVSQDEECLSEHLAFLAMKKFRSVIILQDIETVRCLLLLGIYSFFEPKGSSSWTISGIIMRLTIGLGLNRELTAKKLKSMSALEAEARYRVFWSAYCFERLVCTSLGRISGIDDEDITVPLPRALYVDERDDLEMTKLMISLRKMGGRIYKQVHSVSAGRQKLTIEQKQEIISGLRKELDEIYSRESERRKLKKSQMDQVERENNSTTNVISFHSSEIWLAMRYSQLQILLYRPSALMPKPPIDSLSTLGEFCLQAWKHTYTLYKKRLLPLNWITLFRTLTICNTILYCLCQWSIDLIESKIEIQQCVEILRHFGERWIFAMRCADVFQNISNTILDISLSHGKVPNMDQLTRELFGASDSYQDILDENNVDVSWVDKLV
Experiment: PBM E-score (8-mer binding enrichment) (E-score (-0.5 to 0.5)); higher = stronger / more preferred TF binding; most listed sequences are background and not binding sites
Details: protein concentration: 200 nM; construct: GST-full length
Procedure: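 Universal 'all 10-mer' protein binding microarrays (Agilent AMADID 015681) probed with GST-tagged S. cerevisiae TFs (full-length or DBD) made by in vitro transcription/translation (PURExpress), about 100-200 nM. Bound TF was detected with fluorescent anti-GST. Each ungapped 8-mer (which stands for itself and its reverse complement) is scored by the PBM enrichment score (E-score), a modified Wilcoxon-Mann-Whitney statistic from -0.5 to +0.5, computed with the Universal PBM Analysis Suite. Scale: above 0.35 generally sequence-specific binding.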

| Sequence | PBM E-score |
| --- | --- |
| CAAACTTC | -0.0467 |
| CCCTGGGC | -0.205 |
| TCGAGACA | -0.238 |
| CCGGGGCC | 0.202 |
| CCCCCCCC | -0.388 |
| AGTTTTCG | -0.0129 |
| ATACTTAG | -0.142 |
| GGCCTGCA | 0.0378 |
| GGGGCAAC | -0.114 |
| CCCTCATA | -0.151 |
| TACCACCA | 0.112 |
| ATTTCTGA | -0.0715 |
| GCATGGGC | -0.149 |
| CTAAACGC | 0.113 |
| AAGCCCCC | 0.00224 |
| ACCGTAAC | 0.182 |
| AGACTAAC | 0.00795 |
| GGGAGTTA | 0.146 |
| CGGACCAA | 0.376 |
| CGGGTCTC | 0.151 |
| AACCAGAT | -0.121 |
| GTTTCTGA | -0.0982 |
| TGCTCGAA | -0.119 |
| ATAGAATG | -0.135 |
| CGCGAGCA | 0.0328 |

| Sequence | PBM E-score |
| --- | --- |
| CCCTAAAC | 0.0771 |
| AGGGGCTA | -0.0747 |
| TCACGCAA | -0.0766 |
| CGTCACTC | 0.0223 |
| CGTGCCAA | -0.081 |
| GAGCTGTA | -0.121 |
| GGCGGCAC | 0.343 |
| CCCTGTTA | -0.0434 |
| AGTGGTGG | -0.255 |
| AAATAAAT | 0.169 |
| CATGTGCG | -0.0657 |
| TATAGATA | -0.114 |
| CTGGGTCA | -0.166 |
| ATTGTAAA | 0.132 |
| ATTCAACG | 0.0103 |
| ACCTATAC | -0.0291 |
| ATGGACTC | -0.103 |
| GATATGAC | 0.1 |
| GGACTCCC | -0.0915 |
| AAATACAG | -0.102 |
| AATGTGGT | -0.0348 |
| TAACAAGA | -0.0234 |
| AATAACCC | 0.256 |
| CGGACTCA | 0.411 |
| ATGCAGTG | -0.262 |

| Sequence | PBM E-score |
| --- | --- |
| AATTCGCT | 0.0277 |
| AGCGTGAG | -0.169 |
| AGGGCTTA | 0.12 |
| ACCTTCCA | -0.0713 |
| ACGACCTA | -0.145 |
| AGTCTACA | -0.19 |
| AGGGGGCG | -0.00816 |
| CAACTGTG | -0.157 |
| AGTTCAAC | -0.0908 |
| CATACGAC | -0.108 |
| CTCCAACA | -0.107 |
| ATACTCAA | -0.166 |
| CATTAGGC | -0.124 |
| CATGCCGA | 0.168 |
| CTCTATAC | 0.0661 |
| AGCGCTAA | 0.0869 |
| ACCGTTTA | 0.241 |
| AAGTTAAG | 0.0192 |
| ATTAGTGG | -0.0717 |
| TCTAGAAA | -0.071 |
| TAATACGA | -0.0227 |
| AGACCTAA | -0.0689 |
| CAATCCCC | 0.19 |
| ATTTAGAG | -0.138 |
| AAGCGTTA | -0.105 |

| Sequence | PBM E-score |
| --- | --- |
| CAATTTGC | -0.182 |
| GCCCTTCC | -0.176 |
| AGTGAGTC | -0.196 |
| ACCTCAGT | -0.273 |
| AGGGTCGA | -0.0825 |
| AGCAGTGA | -0.0161 |
| CCTCAAAG | -0.193 |
| ATGGTGGA | -0.209 |
| CCGTTTAG | 0.179 |
| AACTGTCT | -0.224 |
| ATATGCAG | -0.099 |
| GCTGGTCA | -0.189 |
| AGAGGTGC | -0.0802 |
| CTAGATGA | -0.118 |
| CAGGCACA | -0.271 |
| GTAATAAC | 0.0252 |
| GAGGTTTA | 0.101 |
| GTGCTGGA | -0.186 |
| ATGCCGGC | 0.301 |
| GCGACCGC | 0.206 |
| ACGCTAAC | 0.0108 |
| GCAAGATA | 0.0536 |
| CCTGTGGA | -0.356 |
| ACCCCGCG | 0.367 |
| CCCCCAAC | -0.145 |

| Sequence | PBM E-score |
| --- | --- |
| GTAGCAGA | -0.176 |
| AAGGAAGC | -0.149 |
| TAGAACCA | -0.175 |
| GACGCCAC | 0.00899 |
| ATCGGACC | 0.398 |
| TACCATGA | -0.264 |
| AGGGCCCG | 0.165 |
| GTCTTTCA | 0.133 |
| ACCAATCA | -0.173 |
| ACAGACAT | -0.0713 |
| ACGTTTGC | -0.198 |
| CCGTCATA | 0.264 |
| CAATTAGC | 0.00491 |
| ACACTTTA | -0.24 |
| CTGATAAG | -0.064 |
| ACTAACTC | 0.0164 |
| ACGTCGAT | -0.156 |
| CCCCCACA | -0.114 |
| CCACGCCC | 0.101 |
| ACTTGTCT | -0.198 |
| ATTCTCCA | -0.0892 |
| AGACGGGA | 0.202 |
| CTGCCGAC | 0.15 |
| CAACCTGG | -0.278 |
| CCCCGGAA | 0.0442 |

| Sequence | PBM E-score |
| --- | --- |
| ACATAAAA | 0.0923 |
| AAATCAGA | 0.038 |
| CCTACCCC | 0.138 |
| AACAGTGG | -0.0751 |
| ATCTTTCG | -0.135 |
| GATAGTAC | -0.074 |
| ACAATGAG | -0.13 |
| CCACGCTC | -0.191 |
| ATCGACAC | -0.358 |
| ACGGTGAC | 0.297 |
| CTTCACAA | -0.19 |
| GCGAAGTA | -0.132 |
| CACGGTGG | 0.0528 |
| ACCGGGGC | 0.359 |
| AAGCGGAC | 0.352 |
| CGAGAAAC | 0.0031 |
| ATCGGGAG | 0.148 |
| AACCGCTT | 0.076 |
| ATTCGCTG | -0.0736 |
| GACCGCGC | 0.246 |
| GAATTCGA | 0.0085 |
| CTTATGAC | -0.0229 |
| AGCATGTA | -0.21 |
| GCTGAGAA | -0.0927 |
| CGTTATTC | 0.05 |

| Sequence | PBM E-score |
| --- | --- |
| AGTGTTCC | -0.0844 |
| GGGGACCA | -0.0997 |
| CCATGCAC | 0.00841 |
| CACCGAGC | 0.307 |
| GGTATACC | 0.185 |
| ACTTTTCC | 0.111 |
| TGTTGCAA | 0.0817 |
| ATAGAGAG | -0.183 |
| TATGAGCA | -0.156 |
| GTGTTCAA | 0.0193 |
| GAGCCAGC | 0.00015 |
| ACCGAGGT | 0.0858 |
| CGAATAAC | 0.0917 |
| CCCCCGAC | 0.349 |
| CCTCACCG | -0.0129 |
| CTCTCTTA | -0.152 |
| CGAAGTTA | 0.0169 |
| AAAGCGGC | 0.253 |
| AGACGTGG | -0.117 |
| ACTTTAAA | 0.104 |
| AGTGCTCA | -0.155 |
| CGATTATA | 0.131 |
| AGCGGTGG | 0.346 |
| CAAGCTCA | -0.237 |
| AAGTCCTC | -0.066 |

| Sequence | PBM E-score |
| --- | --- |
| AATCCTGT | -0.0858 |
| ATTTATCA | 0.185 |
| AGGCCCGA | 0.314 |
| CATGTTTC | -0.14 |
| CTCGTAAA | -0.11 |
| TGATTGAA | -0.0389 |
| ACGAAAGA | -0.152 |
| CTCACTTA | -0.192 |
| ATGACGCG | -0.0733 |
| CGCCCTAG | 0.0592 |
| CACGTGGA | -0.111 |
| AACTGTCC | 0.029 |
| TCGCTTAA | 0.107 |
| AAAGTGTA | -0.244 |
| TTGAACAA | -0.24 |
| AGACCGTA | 0.144 |
| CCCGGCAG | 0.226 |
| CAAGGATC | -0.125 |
| ATCTAAGG | -0.171 |
| ATCCGTGA | 0.151 |
| ACCTAACG | -0.0677 |
| GACCTCGA | -0.102 |
| ACTAGATC | -0.0408 |
| ATGCGTGG | -0.15 |
| CAAGCCCC | 0.145 |

| Sequence | PBM E-score |
| --- | --- |
| GAGCGGCA | 0.357 |
| ACTAGCTG | -0.197 |
| AACCCAAA | -0.153 |
| CAGTGACA | -0.271 |
| ATATAAAT | 0.166 |
| AGTTAGCG | -0.0972 |
| CCCGCGAC | 0.281 |
| CACTTAGA | -0.0281 |
| GTAACAGA | -0.00141 |
| CGTTACAA | -0.112 |
| GGAACGCA | -0.0726 |
| ATAACGAG | -0.103 |
| GGACTCAA | 0.269 |
| TACCAGTA | -0.0102 |
| CTATCCTC | -0.0779 |
| ATATCGGC | 0.278 |
| GGAAGTAC | 0.261 |
| GTGCTGAA | -0.115 |
| ACCGACGA | 0.354 |
